The values below come from PubChem BioAssay AID1346428 (National Center for Advancing Translational Sciences (NCATS), 2018).

The structures appear in SMILES notation. Where “and” joins values, the source holds several entries; their conditions need not be identical. Equal values may be shown once. The campaign covered roughly 48,000 compounds. About 1,200 (2.5%) were called active. About 2% were inconclusive and are not listed.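 The calls were made as follows: active = activation of at least 60% and not above a set upper limit (about 1 call in 100 departs from these limits); inconclusive = activation of 40% to 60%, or above that upper limit; inactive = activation under 40%.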 The list shows a part of the results.

The assay addresses Probable G-protein coupled receptor 32 (Homo sapiens) (UniProt O75388). Put plainly: qHTS for Agonists of Human Resolvin D1 Receptor DRV1. Also: 0% is about no effect. The settings on record: CHO-K1 GPR32 beta-arrestin PathHunter luminescence, 90 min; at 76.9 µM; hits give high values; zero percent set by DMSO-only wells. Put shortly: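 GPR32 activation in stably transfected CHO-K1 cells, detected as beta-arrestin recruitment by enzyme-fragment complementation. Compound exposure: 90 min, 37 °C.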
UniProt O75388, sequence (O75388 whole entry, looked up, the tested form may be a part): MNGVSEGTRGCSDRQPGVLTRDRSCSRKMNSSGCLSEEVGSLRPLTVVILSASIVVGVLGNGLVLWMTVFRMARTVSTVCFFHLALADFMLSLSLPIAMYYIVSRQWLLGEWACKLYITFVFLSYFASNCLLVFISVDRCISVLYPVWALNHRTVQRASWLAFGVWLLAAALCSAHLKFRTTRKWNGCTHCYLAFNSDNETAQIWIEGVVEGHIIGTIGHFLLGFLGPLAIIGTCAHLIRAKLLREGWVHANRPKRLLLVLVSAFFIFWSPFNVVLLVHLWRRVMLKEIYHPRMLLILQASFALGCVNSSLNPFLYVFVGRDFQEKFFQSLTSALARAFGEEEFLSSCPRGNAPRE
(In qHTS, concentration-response curves come from the screen itself.)
Turning to `N#CC1(c2ccc(F)cc2)CCC(=O)CC1`, the activation was inactive: -6.82%. In the case of `CCc1ccc(-c2cc(C)no2)cc1S(=O)(=O)Nc1ccc(C)cn1`, the activation was inactive: -10.4%. On to `CNC(=O)C1CCN(Cc2cc3ccccc3n2Cc2cccc(C)c2)CC1`, for which the activation is inactive: -1.46%.

For `CC(C)CCNC(=O)C1CCN(S(=O)(=O)c2cccc3nsnc23)CC1`, the activation was inactive: 10.4%. On to `Cc1cccc(-c2nnn3c2nc(NCc2ccccc2)c2ccccc23)c1`, for which the activation was inactive: 34.2%.

Turning to `CCCC(CCC)C(=O)Nc1cccc(-c2nc3cccnc3s2)c1`, the activation is inactive: -8.88%. Under `CCc1ccccc1NC(=O)N1CCC2(CC1)Oc1ccccc1C(=O)N2Cc1ccccc1F` stands inactive: -16.7%. Regarding `COc1ccc(CCN2C(=O)N(c3ccc(F)cc3)C(=O)C2CC(=O)Nc2ccc(OC)cc2)cc1` (stereo not given), the activation is inactive: 27.8%. With `CCOc1ccc(C(=O)NCC(c2ccc3c(c2)OCO3)N2CCN(c3ccc(F)cc3)CC2)cc1` (stereo not given), the activation is inactive: -19.3%. Consider `CC(=O)Nc1ccc(NS(=O)(=O)c2ccc3[nH]c4c(c3c2)CCCCC4)cc1`, for which the activation is active: 80%. Regarding `CCCCC1C(=O)N(c2ccccc2)N(c2ccccc2)C1=O`, the activation is inactive: -12.7% and inactive: -28.4%.

Turning to `Cc1ccc(-n2nc3c(N4CCC(C(=O)NCCc5ccccc5C)CC4)nnc(C)c3c2C)cc1`, the activation is inactive: -15.9%. In the case of `Cc1ccc(CN2CCN(C3CCN(C(=O)c4ccc(C)cc4)CC3)C(=O)C2=O)cc1`, the activation was inactive: -4.22%.

`CC1CCN(Cc2c(O)ccc3c(=O)c(-c4ccc(Cl)cc4)c(C(F)(F)F)oc23)CC1`: the activation is inactive: -37.9%. The value for `CC(C)(C)c1cc(C(C)(C)C)c2oc(=O)c(-c3nc4ccc(C(=O)O)cc4[nH]3)cc2c1` was inactive: 3.72%. Under `COc1cc(OC)c(NC(=O)N2CCN3CCCCC3C2)cc1Cl` (stereo not given) stands inactive: -17.4%; under `CC(=O)N1CCc2cc(S(=O)(=O)NC(CC(C)C)C(=O)NCCc3ccccc3)ccc21` (stereo not given), inactive: 11.9%; under `CCOC(=O)c1ccccc1NC(=O)CSc1cc(C)[nH]c(=O)n1`, inactive: -5.04%. The value for `COc1ccc(Cl)cc1NC(=O)CCN1C(=O)c2ccccc2Sc2ncccc21` was inactive: -7.45%; that for `CC(C)C(=O)N1c2nc(C(C)C)nn2C2(CCCCC2)[C@@H]2CCCC[C@@H]21` was inactive: -9.56%; that for `COc1ccc(OC)c(Nc2ncc3c(n2)CCN(Cc2cc(OC)c(OC)c(OC)c2)C3)c1` was inactive: 7.53%. With `COc1cc(-c2nnc(SCC(=O)Oc3ccccc3)o2)cc(OC)c1OC`, the activation is inactive: -9.91%. Take `Cc1ccc(Nc2nc3ccccc3c3nnc(C)n23)cc1Cl`: the activation was inactive: -37.6%.

As to `Cc1cc(C)c2c(=O)cc(CSc3nnc(-c4ccccc4)n3C)[nH]c2c1`, the activation is active: 60.7%. As to `O=C(c1ccc2c(c1)CCN2S(=O)(=O)c1ccc(Cl)cc1)N1CCN(c2ccccc2)CC1`, the activation was inactive: -12%. For `COc1ccc(OC)c(CNC(=O)c2c(C)oc3ncn(C)c(=O)c23)c1`, the activation was inactive: -6.6%. As to `COc1ccc(N2CC(NC(=O)c3ccco3)CC2=O)cc1OC` (stereo not given), the activation is inactive: -5.54%. For `CCOc1ccc(CN2C(=O)c3ccccc3Sc3ccc(C(=O)OC)cc32)cc1`, the activation was inactive: -24.9%. `CC(=O)Nc1ccc(S(=O)(=O)NCc2cccn2Cc2cccc(C)c2)cc1`: the activation is active: 87.9%.

`COc1ccc(CNC(=O)c2ccc3c(c2)N(Cc2ccccc2C)C(=O)c2ccccc2S3=O)cc1` (stereo not given): the activation is inactive: -32%. For the compound `O=C(NCc1ccc(F)cc1)C1CCN(c2ncnc3c2nc2n3CCCCC2)CC1`, the activation was inactive: -1.06%.

On to `Nc1ccccc1N`, for which the activation is inactive: -24.4%. Turning to `COc1ccc(CNc2oc(/C=C/c3cccc(OC)c3)nc2C#N)cc1`, the activation was inactive: -2.96%. For `CN(Cc1ccccc1)C(=O)c1cccc(NC(=O)c2nsc3ccccc23)c1`, the activation was inactive: -17.6%. As for `COc1cc(C(CC(=O)Nc2cc(C)ccc2C)N2Cc3ccccc3C2=O)cc(OC)c1OC` (stereo not given), the activation was inactive: 15.3%. For `Cc1ccc2nc(-c3ccncc3)c(Nc3ccc(C(C)C)cc3)n2c1`, the activation is inactive: -26%.

As to `CCOC(=O)c1[nH]c(C)c(CCC(=O)N2CCN(c3cccc(C)c3C)CC2)c1C`, the activation was inactive: -20.5%. Turning to `CCOCCCNC(=O)c1cn(CC)c2ccc(S(=O)(=O)N3CCc4ccccc4C3)cc2c1=O`, the activation was inactive: 3.07%. Under `CC(C)(C)OC(=O)N1CCC(c2c(C(=O)N3CCN(c4ccccn4)CC3)cnn2-c2ccccc2Cl)CC1` stands inactive: -21.3%. Under `CC(=O)c1ccc(NC(c2ccc(F)cc2)c2nnc(-c3ccccc3)o2)cc1` (stereo not given) stands inactive: -12.3%; under `CCOCCc1nn2c(=O)cc(COC(=O)CNC(=O)c3ccc(F)cc3)nc2s1`, inactive: -11%; under `Cc1ccc(CSc2nc(-c3ccc(C(C)(C)C)cc3)nc3cc(=O)[nH]n23)cc1`, inactive: 21.2%.

`CCc1ccc(Nc2sc(C(=O)c3ccccc3)c(N)c2S(C)(=O)=O)cc1`: the activation was inactive: -50%. Under `CCOc1ccc(CC(=O)NCCc2csc(-c3ccc(Cl)cc3)n2)cc1` stands active: 87.7%; under `CCN(CC)CCCNC(=O)CSc1nc2nc(C)c(Cc3c(F)cccc3Cl)c(C)n2n1`, inactive: 0.772%; under `CCc1ccc(-n2nc(CO)c(C(=O)NCC(c3ccccc3)c3ccccc3)n2)cc1`, inactive: -21.9%. For the compound `Cc1ccc(N(Cc2cc3ccccc3[nH]c2=O)C(=O)c2cccc(Cl)c2)cc1`, the activation was inactive: -19.5%. Consider `O=C(O)Cc1ccc(O)c(O)c1`, for which the activation was inactive: -5.58%. As to `Cc1ccc(-c2cn3c(n2)sc2cc(C(=O)NCc4cccs4)ccc23)c(C)c1`, the activation was inactive: -5.19%.

Turning to `CC(C)NC(=O)C(c1ccccc1)N1Cc2ccccc2C1=O` (stereo not given), the activation was inactive: -16.6%.

As for `COc1ccc(Cn2ccc3nc(C)c(C(=O)N4CCN(c5ccccc5OC)CC4)cc3c2=O)cc1`, the activation was inactive: -1.27%. Turning to `CC(C)c1ccc2occ(CC(=O)Nc3ccccc3Cl)c2c1`, the activation is inactive: -3.21%. On to `COc1ccc(OCC2c3cc(OC)c(OC)cc3CCN2C(=O)COc2ccc(Cl)cc2Cl)cc1` (stereo not given), for which the activation is inactive: -11.6%.

`COc1ccc(-c2noc(CSc3nc(C)cc(=O)[nH]3)n2)cc1OC`: the activation was inactive: -6.05%.

With `Cc1ccc(CSc2nnc(-n3c(=O)c(C#N)cc4c(=O)n5cc(C)ccc5nc43)s2)cc1`, the activation is inactive: 7.63%.
